The other results are listed elsewhere or left out.
How the values were obtained:
Assay in all cases: glycan array binding signal (z-score within array); higher = stronger binding
Settings in all cases: glycan notation: IUPAC condensed, linker removed
[1] = molecular target: Neu5Ac(a2-3)Gal(b1-4)[Fuc(a1-3)]GlcNAc(b1-3)GalNAc
Procedure, shortened: (§1)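 The binding signal is a Z-score computed within each array and averaged over linkers. Arrays of the same protein sequence at different concentrations or buffers were also averaged together. Data originate from 3228 arrays in the Consortium for Functional Glycomics database, kept only where the protein sequence was available.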

[2] = molecular target: Neu5Ac(a2-3)Gal(b1-4)[Fuc(a1-3)]GlcNAc(b1-6)[Gal(b1-3)]GalNAc
Procedure, shortened: as §1

[3] = molecular target: Neu5Ac(a2-3)Gal(b1-4)[Fuc(a1-3)]GlcNAc(b1-6)[Neu5Ac(a2-3)Gal(b1-3)]GalNAc
Procedure, shortened: as §1

[4] = molecular target: Neu5Ac(a2-3)Gal(b1-4)[Fuc(a1-3)]GlcNAc6S
Procedure, shortened: as §1

[5] = molecular target: Neu5Ac(a2-3)Gal6S(b1-4)GlcNAc
Procedure, shortened: as §1

[6] = molecular target: Neu5Ac(a2-3)Gal6S(b1-4)[Fuc(a1-3)]GlcNAc
Procedure, shortened: as §1

[7] = molecular target: Neu5Ac(a2-3)GalNAc
Procedure, shortened: as §1

[8] = molecular target: Neu5Ac(a2-3)GalNAc(b1-4)GlcNAc
Procedure, shortened: as §1

[9] = molecular target: Neu5Ac(a2-3)[GalNAc(b1-4)]Gal(b1-4)Glc
Procedure, shortened: as §1

[10] = molecular target: Neu5Ac(a2-3)[GalNAc(b1-4)]Gal(b1-4)GlcNAc
Procedure, shortened: as §1

[11] = molecular target: Neu5Ac(a2-3)[GalNAc(b1-4)]Gal(b1-4)GlcNAc(b1-3)GalNAc
Procedure, shortened: as §1

[12] = molecular target: Neu5Ac(a2-3)[Neu5Ac(a2-6)]GalNAc
Procedure, shortened: as §1

[13] = molecular target: Neu5Ac(a2-6)Gal
Procedure, shortened: as §1

[14] = molecular target: Neu5Ac(a2-6)Gal(b1-3)GlcNAc(b1-3)[Gal(b1-4)GlcNAc(b1-6)]Gal(b1-4)Glc
Procedure, shortened: as §1

[15] = molecular target: Neu5Ac(a2-6)Gal(b1-4)Glc
Procedure, shortened: as §1

[16] = molecular target: Neu5Ac(a2-6)Gal(b1-4)GlcNAc
Procedure, shortened: as §1

[17] = molecular target: Neu5Ac(a2-6)Gal(b1-4)GlcNAc(b1-2)Man
Procedure, shortened: as §1

[18] = molecular target: Neu5Ac(a2-6)Gal(b1-4)GlcNAc(b1-2)Man(a1-3)Man(b1-4)GlcNAc(b1-4)GlcNAc
Procedure, shortened: as §1

[19] = molecular target: Neu5Ac(a2-6)Gal(b1-4)GlcNAc(b1-2)Man(a1-3)[Gal(b1-4)GlcNAc(b1-2)Man(a1-6)]Man(b1-4)GlcNAc(b1-4)GlcNAc
Procedure, shortened: as §1

[20] = molecular target: Neu5Ac(a2-6)Gal(b1-4)GlcNAc(b1-2)Man(a1-3)[GlcNAc(b1-2)Man(a1-6)]Man(b1-4)GlcNAc(b1-4)GlcNAc
Procedure, shortened: as §1

[21] = molecular target: Neu5Ac(a2-6)Gal(b1-4)GlcNAc(b1-2)Man(a1-3)[GlcNAc(b1-4)][Neu5Ac(a2-6)Gal(b1-4)GlcNAc(b1-2)Man(a1-6)]Man(b1-4)GlcNAc(b1-4)GlcNAc
Procedure, shortened: as §1

[22] = molecular target: Neu5Ac(a2-6)Gal(b1-4)GlcNAc(b1-2)Man(a1-3)[Man(a1-6)]Man(b1-4)GlcNAc(b1-4)GlcNAc
Procedure, shortened: as §1

[23] = molecular target: Neu5Ac(a2-6)Gal(b1-4)GlcNAc(b1-2)Man(a1-3)[Neu5Ac(a2-3)Gal(b1-4)GlcNAc(b1-2)Man(a1-6)]Man(b1-4)GlcNAc(b1-4)GlcNAc
Procedure, shortened: as §1

[24] = molecular target: Neu5Ac(a2-6)Gal(b1-4)GlcNAc(b1-2)Man(a1-3)[Neu5Ac(a2-6)Gal(b1-4)GlcNAc(b1-2)Man(a1-6)]Man(b1-4)GlcNAc(b1-4)GlcNAc
Procedure, shortened: as §1

[25] = molecular target: Neu5Ac(a2-6)Gal(b1-4)GlcNAc(b1-2)Man(a1-3)[Neu5Ac(a2-6)Gal(b1-4)GlcNAc(b1-2)Man(a1-6)]Man(b1-4)GlcNAc(b1-4)[Fuc(a1-6)]GlcNAc
Procedure, shortened: as §1

[26] = molecular target: Neu5Ac(a2-6)Gal(b1-4)GlcNAc(b1-2)Man(a1-6)Man(b1-4)GlcNAc(b1-4)GlcNAc
Procedure, shortened: as §1

[27] = molecular target: Neu5Ac(a2-6)Gal(b1-4)GlcNAc(b1-2)Man(a1-6)[Gal(b1-4)GlcNAc(b1-2)Man(a1-3)]Man(b1-4)GlcNAc(b1-4)GlcNAc
Procedure, shortened: as §1

[28] = molecular target: Neu5Ac(a2-6)Gal(b1-4)GlcNAc(b1-2)Man(a1-6)[GlcNAc(b1-2)Man(a1-3)]Man(b1-4)GlcNAc(b1-4)GlcNAc
Procedure, shortened: as §1

[29] = molecular target: Neu5Ac(a2-6)Gal(b1-4)GlcNAc(b1-2)Man(a1-6)[Man(a1-3)]Man(b1-4)GlcNAc(b1-4)GlcNAc
Procedure, shortened: as §1

[30] = molecular target: Neu5Ac(a2-6)Gal(b1-4)GlcNAc(b1-2)[Neu5Ac(a2-6)Gal(b1-4)GlcNAc(b1-4)]Man(a1-3)[GlcNAc(b1-4)][Neu5Ac(a2-6)Gal(b1-4)GlcNAc(b1-2)[Neu5Ac(a2-6)Gal(b1-4)GlcNAc(b1-6)]Man(a1-6)]Man(b1-4)GlcNAc(b1-4)GlcNAc
Procedure, shortened: as §1

[31] = molecular target: Neu5Ac(a2-6)Gal(b1-4)GlcNAc(b1-2)[Neu5Ac(a2-6)Gal(b1-4)GlcNAc(b1-4)]Man(a1-3)[GlcNAc(b1-4)][Neu5Ac(a2-6)Gal(b1-4)GlcNAc(b1-4)Man(a1-6)]Man(b1-4)GlcNAc(b1-4)GlcNAc
Procedure, shortened: as §1

[32] = molecular target: Neu5Ac(a2-6)Gal(b1-4)GlcNAc(b1-2)[Neu5Ac(a2-6)Gal(b1-4)GlcNAc(b1-6)]Man(a1-6)[Neu5Ac(a2-6)Gal(b1-4)GlcNAc(b1-2)Man(a1-3)][GlcNAc(b1-4)]Man(b1-4)GlcNAc(b1-4)GlcNAc
Procedure, shortened: as §1

[33] = molecular target: Neu5Ac(a2-6)Gal(b1-4)GlcNAc(b1-3)Gal(b1-3)GlcNAc
Procedure, shortened: as §1

[34] = molecular target: Neu5Ac(a2-6)Gal(b1-4)GlcNAc(b1-3)Gal(b1-4)GlcNAc
Procedure, shortened: as §1

[35] = molecular target: Neu5Ac(a2-6)Gal(b1-4)GlcNAc(b1-3)Gal(b1-4)GlcNAc(b1-2)Man(a1-3)[Neu5Ac(a2-6)Gal(b1-4)GlcNAc(b1-3)Gal(b1-4)GlcNAc(b1-2)Man(a1-6)]GalNAc
Procedure, shortened: as §1

[36] = molecular target: Neu5Ac(a2-6)Gal(b1-4)GlcNAc(b1-3)Gal(b1-4)GlcNAc(b1-3)Gal(b1-4)GlcNAc
Procedure, shortened: as §1

[37] = molecular target: Neu5Ac(a2-6)Gal(b1-4)GlcNAc(b1-3)Gal(b1-4)GlcNAc(b1-3)Gal(b1-4)GlcNAc(b1-2)Man(a1-3)[Neu5Ac(a2-6)Gal(b1-4)GlcNAc(b1-3)Gal(b1-4)GlcNAc(b1-3)Gal(b1-4)GlcNAc(b1-2)Man(a1-6)]GalNAc
Procedure, shortened: as §1

B1: UDA (Urtica dioica), P11218 (protein)
chain: MMMRFLSAVVIMSSAMAVGLVSAQRCGSQGGGGTCPALWCCSIWGWCGDSEPYCGRTCENKCWSGERSDHRCGAAVGNPPCGQDRCCSVHGWCGGGNDYCSGSKCQYRCSSSVRGPRVALSGNSTANSIGNVVVTEPLFDQMFSHRKDCPSQGFYSYHSFLVAAESFPAFGTIGDVATRKREVAAFLAHISQATSGERSDVENPHAWGLCHINTTTVTENDFCTSSDWPCAAGKKYSPRGPIQLTHNFNYGLAGQAIGEDLIQNPDLVEKDPIISFKTALWFWMSQHDNKPSCHDIVLNANSAANRIPNKGVIGNIISRAFGHDDFAVRSSSIGFYKRYCDMLGVSYGHDLKYWFDNTPSSEFQRIQMRVAA
glycan array binding signal (z-score) [1]: -0.165 | glycan array binding signal (z-score) [2]: -0.159 | glycan array binding signal (z-score) [3]: -0.168 | glycan array binding signal (z-score) [4]: -0.188 | glycan array binding signal (z-score) [5]: -0.19 | glycan array binding signal (z-score) [6]: -0.175 | glycan array binding signal (z-score) [7]: -0.194 | glycan array binding signal (z-score) [8]: -0.07 | glycan array binding signal (z-score) [9]: -0.189 | glycan array binding signal (z-score) [10]: -0.087 | glycan array binding signal (z-score) [11]: -0.146 | glycan array binding signal (z-score) [12]: -0.194 | glycan array binding signal (z-score) [13]: -0.189 | glycan array binding signal (z-score) [14]: -0.145 | glycan array binding signal (z-score) [15]: -0.191 | glycan array binding signal (z-score) [16]: -0.193 | glycan array binding signal (z-score) [17]: -0.182 | glycan array binding signal (z-score) [18]: 1.69 | glycan array binding signal (z-score) [19]: -0.176 | glycan array binding signal (z-score) [20]: -0.126 | glycan array binding signal (z-score) [21]: -0.179 | glycan array binding signal (z-score) [22]: 4.09 | glycan array binding signal (z-score) [23]: -0.173 | glycan array binding signal (z-score) [24]: -0.162 | glycan array binding signal (z-score) [25]: -0.169 | glycan array binding signal (z-score) [26]: -0.176 | glycan array binding signal (z-score) [27]: -0.178 | glycan array binding signal (z-score) [28]: -0.172 | glycan array binding signal (z-score) [29]: -0.174 | glycan array binding signal (z-score) [30]: -0.175 | glycan array binding signal (z-score) [31]: -0.181 | glycan array binding signal (z-score) [32]: -0.178 | glycan array binding signal (z-score) [33]: -0.183 | glycan array binding signal (z-score) [34]: -0.141 | glycan array binding signal (z-score) [35]: -0.152 | glycan array binding signal (z-score) [36]: -0.081 | glycan array binding signal (z-score) [37]: -0.106

— the supplement of paper PMC8728848
